Results: the supplement of paper PMC3334620
The full ranking holds about 33,000 sequences; the median of “E-score (-0.5 to 0.5)” is about -0.035, and the highest 2% start at about 0.35. Some of the results follow.

Biological target: T1, Pdr3 (UniProt P33200)
T1 sequence: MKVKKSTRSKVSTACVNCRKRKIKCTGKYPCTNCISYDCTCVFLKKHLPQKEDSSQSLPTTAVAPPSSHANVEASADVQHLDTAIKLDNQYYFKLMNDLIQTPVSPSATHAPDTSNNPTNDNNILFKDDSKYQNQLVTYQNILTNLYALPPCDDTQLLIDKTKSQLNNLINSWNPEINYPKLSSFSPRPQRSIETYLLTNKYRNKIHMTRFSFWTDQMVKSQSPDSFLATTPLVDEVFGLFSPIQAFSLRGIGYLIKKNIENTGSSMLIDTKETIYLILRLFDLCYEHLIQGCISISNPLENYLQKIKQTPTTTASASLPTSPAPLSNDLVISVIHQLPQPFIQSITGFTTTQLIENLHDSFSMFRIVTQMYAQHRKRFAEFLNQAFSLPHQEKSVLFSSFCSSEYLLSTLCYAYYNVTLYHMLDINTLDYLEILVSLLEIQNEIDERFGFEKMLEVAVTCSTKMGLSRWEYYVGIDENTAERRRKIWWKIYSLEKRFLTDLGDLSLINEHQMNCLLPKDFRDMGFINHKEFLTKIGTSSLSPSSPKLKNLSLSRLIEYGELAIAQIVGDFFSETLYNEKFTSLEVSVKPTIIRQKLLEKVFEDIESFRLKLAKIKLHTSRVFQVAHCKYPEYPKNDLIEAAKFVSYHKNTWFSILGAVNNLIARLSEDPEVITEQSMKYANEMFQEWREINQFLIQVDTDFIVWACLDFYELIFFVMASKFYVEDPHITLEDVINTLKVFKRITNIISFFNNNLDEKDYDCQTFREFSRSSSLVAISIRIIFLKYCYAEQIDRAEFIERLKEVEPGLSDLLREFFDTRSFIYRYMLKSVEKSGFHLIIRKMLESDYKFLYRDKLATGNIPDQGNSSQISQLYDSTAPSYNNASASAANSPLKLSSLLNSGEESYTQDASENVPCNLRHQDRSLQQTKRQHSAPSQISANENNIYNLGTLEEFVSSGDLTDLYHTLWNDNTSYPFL
Assay: PBM E-score (8-mer binding enrichment) (E-score (-0.5 to 0.5)); higher = stronger / more preferred TF binding; most listed sequences are background and not binding sites
Settings: protein concentration: 200 nM; construct: GST-full length
Summary of the method: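 PURExpress in vitro transcription/translation supplied GST-tagged yeast transcription factors, either full-length or DNA-binding domain. Applied at about 100-200 nM to universal all-10-mer Agilent arrays double-stranded by primer extension, the bound protein was detected with fluorescent anti-GST. E-scores, modified Wilcoxon-Mann-Whitney statistics, were given by the Universal PBM Analysis Suite to ungapped eight-base words pooled with their reverse complements after masliner normalisation.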

Sequence | PBM E-score
GTCCAAAC | -0.21
AACAGAGG | -0.128
ACTCACAC | 0.143
ATAAAGCG | -0.096
AGTTCGCG | 0.148
AAGCAACA | -0.21
CAGGGTGC | -0.142
CCGTCCGC | 0.261
GATGAGAA | -0.131
GTACCATA | -0.164
AGAGGTTG | -0.112
AAATAGAC | 0.0586
CGTACGTC | -0.134
CCCCGAGG | 0.165
CGGTTAGA | 0.0958
AACGCCCG | 0.231
CATGAAGC | 0.058
ACATTGCA | -0.118
ACGTTCTG | 0.0019
ATCCGCAT | 0.267
CTAGAACC | -0.237
GGGCCGAA | 0.121
AAACTTGT | -0.00572
CGATCTCA | -0.00747
GGCTCCAC | -0.235

Sequence | PBM E-score
GCGAGGAA | 0.253
TATGTTGA | -0.0621
CCAGGACA | 0.0484
GACGTCCA | 0.0284
GATGGTCC | 0.0792
ACGCAATA | 0.0846
GCTCGAAC | -0.0851
AGTCAAGG | -0.135
ACACTTAC | 0.0449
AAAAAGAT | -0.0609
AGGAAGTA | 0.0507
CTCCCCGC | 0.34
AACATGCG | -0.0894
CCTAACGA | -0.163
GTTCCGTA | 0.471
ACTAGAAG | -0.111
AGGATGCG | -0.0929
CGGCTAAA | 0.183
GACGCGTC | -0.0516
AAACACTA | -0.158
GTATACCA | -0.00724
AAAAGGGA | -0.114
ACGCATCA | -0.129
CAGTTGAA | -0.151
ACTGTAAC | -0.167

Sequence | PBM E-score
AAGTAGCG | -0.212
CGGTCAAG | 0.198
GGCCCCGA | 0.181
GAACCAGA | -0.134
AGATAGAG | 0.0305
CAAGTTCC | 0.243
TGTTTGAA | -0.218
AGAATTCG | -0.0278
GGGGGTCA | -0.225
ACGTGGTG | -0.0844
AGTTTTAC | -0.00174
CTTGACCA | -0.251
CGCGTTGC | 0.205
ATGGCACC | -0.0273
CGGGTGCC | 0.191
ACGTGCTA | -0.238
CACTGCGA | -0.0545
CTTCTCAA | -0.223
GTAATGAC | -0.0972
GTTTTACA | -0.181
CTCTATTC | 0.0887
ATCCACGC | -0.296
GCATCGGC | 0.106
GGCGGAGA | 0.288
GTCTAAGA | 0.0409

Sequence | PBM E-score
GTAGGTTA | -0.0402
AGGAGACA | 0.00111
CTGGGTTC | 0.0387
GTAAGAGA | -0.0427
ACCTTTAT | -0.226
GCGTACCC | -0.0492
CAATTCGC | 0.189
CTCTAGCC | -0.195
ATCCAGGC | -0.0165
GGAAGCCC | 0.227
CGCGTTGA | 0.0123
CCGAAGAC | 0.192
CGATATAC | 0.0617
GGTCCCTA | -0.0242
ACCGGAGA | 0.353
GCCCTCAA | -0.225
CTGTCGTA | -0.0699
CTCGCCGC | 0.161
CGTAGAGA | -0.182
AACCCGAG | 0.238
TCATGTAA | -0.182
AGCGGCCC | 0.0341
AAATGCGT | -0.0464
GAGTCTGA | -0.152
ATTTGTAC | -0.138

Sequence | PBM E-score
CATAGACA | -0.0755
CAAGCCTG | -0.257
GCGTTCAC | -0.114
ATGTTGCC | -0.0328
ACTACAGT | -0.24
AAGCTACA | -0.264
ATGCTTAA | -0.0561
CATCACGC | -0.0621
AAGATTAA | 0.0157
GAAACCTA | -0.0777
GACCCTTA | -0.212
CATTCCTC | 0.0812
ATTGGGCG | -0.011
AATCACGC | 0.0492
CTATTTAC | 0.0464
ATATATTG | 0.0274
GAGCTGAA | -0.0952
TATTGCGA | 0.0578
CTGGTATA | -0.175
TCCCGCCA | 0.28
GGCTTATA | -0.14
ACCGAGTA | 0.0879
ATAGAGGG | -0.0467
ACTTCTCC | 0.126
ATACCTAT | -0.00049

Sequence | PBM E-score
CGTCTCAC | -0.132
AATGCAAG | -0.0683
CAATCCGC | 0.265
CGAGAGAC | -0.176
GCGAGTGA | -0.0429
AACATCAA | 0.0672
ACTAAGAT | -0.0196
TGGTAAAA | -0.114
CGTAGGTC | -0.26
AACTACCA | -0.19
GGTCGTCA | -0.132
CACCACGG | -0.0288
AAGCTTAA | 0.0158
GCTCTGCA | -0.161
CTAAACCC | -0.0585
ATTTTGGG | -0.134
CAAACTTA | -0.00098
CACATACA | -0.207
CACCCAGG | -0.11
CCACGGAG | 0.429
AAGCTAAG | -0.265
TCCAAGAA | -0.108
TTCTCAAA | -0.115
CCAGTTTC | 0.0244
GTTGTTCA | -0.104

Sequence | PBM E-score
TAGTACTA | -0.135
ACCGCCGG | 0.288
GAATTAAA | 0.0131
CTACGTTA | -0.0972
ATTAGGTC | 0.0884
AGCACTTA | -0.102
CTAGATCC | -0.0466
CCTAAACC | -0.2
GCCTGTGA | -0.242
GTCGTCAC | -0.197
ACGGTGAA | -0.0181
ATTATTAG | -0.0723
GGTCTCAA | -0.179
AGCATGCT | -0.108
CGACACAG | -0.0293
CCCAACAA | -0.0732
GCGTCCAA | -0.127
GTGATAAA | -0.0503
TGGCGAAA | -0.0244
TAGCACAA | -0.0987
CTTCAATA | -0.0336
CAGGGAAG | -0.192
